Data on three compounds can be found in ChEMBL document CHEMBL1961873, “Compounds: GSK PKIS; Assays: Nanosyn kinase panel” (2012).

Assay [1] addresses T1, Serine/threonine-protein kinase Nek9 (Homo sapiens) (UniProt Q8TD19).
T1 sequence (whole entry): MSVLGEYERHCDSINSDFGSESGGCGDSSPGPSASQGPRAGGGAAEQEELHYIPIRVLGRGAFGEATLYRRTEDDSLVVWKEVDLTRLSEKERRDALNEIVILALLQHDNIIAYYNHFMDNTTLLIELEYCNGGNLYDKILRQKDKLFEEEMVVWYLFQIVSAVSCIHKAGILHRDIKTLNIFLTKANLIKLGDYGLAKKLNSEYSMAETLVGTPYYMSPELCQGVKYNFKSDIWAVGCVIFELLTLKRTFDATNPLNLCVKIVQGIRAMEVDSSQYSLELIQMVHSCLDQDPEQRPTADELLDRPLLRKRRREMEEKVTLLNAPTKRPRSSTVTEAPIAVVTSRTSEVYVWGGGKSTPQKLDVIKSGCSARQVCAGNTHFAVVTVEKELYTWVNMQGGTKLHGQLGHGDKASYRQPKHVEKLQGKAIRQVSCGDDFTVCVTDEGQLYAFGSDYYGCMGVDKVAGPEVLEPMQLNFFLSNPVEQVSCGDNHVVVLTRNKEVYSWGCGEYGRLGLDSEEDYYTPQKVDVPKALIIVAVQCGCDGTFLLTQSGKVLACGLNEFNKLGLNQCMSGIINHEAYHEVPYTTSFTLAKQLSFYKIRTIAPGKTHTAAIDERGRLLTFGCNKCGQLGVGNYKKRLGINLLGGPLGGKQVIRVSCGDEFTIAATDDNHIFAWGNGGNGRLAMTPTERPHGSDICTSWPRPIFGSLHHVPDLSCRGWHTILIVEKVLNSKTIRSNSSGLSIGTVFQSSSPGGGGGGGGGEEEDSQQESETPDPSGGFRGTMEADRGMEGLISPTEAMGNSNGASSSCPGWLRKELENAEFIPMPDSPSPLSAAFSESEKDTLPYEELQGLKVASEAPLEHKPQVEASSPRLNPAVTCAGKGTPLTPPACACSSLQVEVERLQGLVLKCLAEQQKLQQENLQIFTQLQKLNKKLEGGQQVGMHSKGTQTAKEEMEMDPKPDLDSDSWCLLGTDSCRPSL
Conditions: at 1 µM.

Assay [2] deals with Serine/threonine-protein kinase PLK1 (Homo sapiens) (UniProt P53350). To be noted: at 0.1 µM.
UniProt P53350, sequence (P53350 whole entry): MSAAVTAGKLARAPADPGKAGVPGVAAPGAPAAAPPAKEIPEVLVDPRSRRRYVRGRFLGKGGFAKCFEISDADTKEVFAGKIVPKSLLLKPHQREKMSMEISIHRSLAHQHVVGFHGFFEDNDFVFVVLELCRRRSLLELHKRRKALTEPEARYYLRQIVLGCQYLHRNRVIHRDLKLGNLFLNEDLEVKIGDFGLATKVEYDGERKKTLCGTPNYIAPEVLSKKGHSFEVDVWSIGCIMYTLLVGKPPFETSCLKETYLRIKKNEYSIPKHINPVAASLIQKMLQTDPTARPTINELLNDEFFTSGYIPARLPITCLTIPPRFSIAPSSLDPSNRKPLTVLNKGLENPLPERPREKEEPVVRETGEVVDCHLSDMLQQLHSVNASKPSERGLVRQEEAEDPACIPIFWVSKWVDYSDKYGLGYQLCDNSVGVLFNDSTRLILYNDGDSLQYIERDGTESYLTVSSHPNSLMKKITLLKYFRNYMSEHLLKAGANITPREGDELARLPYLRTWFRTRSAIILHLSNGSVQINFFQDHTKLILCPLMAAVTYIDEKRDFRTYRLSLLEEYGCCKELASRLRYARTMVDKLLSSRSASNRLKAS
Assay [3] shares this target. To be noted: at 1 µM.
Assay [4] deals with T2, Dual specificity protein kinase TTK (Homo sapiens) (UniProt P33981).
T2 sequence (whole entry): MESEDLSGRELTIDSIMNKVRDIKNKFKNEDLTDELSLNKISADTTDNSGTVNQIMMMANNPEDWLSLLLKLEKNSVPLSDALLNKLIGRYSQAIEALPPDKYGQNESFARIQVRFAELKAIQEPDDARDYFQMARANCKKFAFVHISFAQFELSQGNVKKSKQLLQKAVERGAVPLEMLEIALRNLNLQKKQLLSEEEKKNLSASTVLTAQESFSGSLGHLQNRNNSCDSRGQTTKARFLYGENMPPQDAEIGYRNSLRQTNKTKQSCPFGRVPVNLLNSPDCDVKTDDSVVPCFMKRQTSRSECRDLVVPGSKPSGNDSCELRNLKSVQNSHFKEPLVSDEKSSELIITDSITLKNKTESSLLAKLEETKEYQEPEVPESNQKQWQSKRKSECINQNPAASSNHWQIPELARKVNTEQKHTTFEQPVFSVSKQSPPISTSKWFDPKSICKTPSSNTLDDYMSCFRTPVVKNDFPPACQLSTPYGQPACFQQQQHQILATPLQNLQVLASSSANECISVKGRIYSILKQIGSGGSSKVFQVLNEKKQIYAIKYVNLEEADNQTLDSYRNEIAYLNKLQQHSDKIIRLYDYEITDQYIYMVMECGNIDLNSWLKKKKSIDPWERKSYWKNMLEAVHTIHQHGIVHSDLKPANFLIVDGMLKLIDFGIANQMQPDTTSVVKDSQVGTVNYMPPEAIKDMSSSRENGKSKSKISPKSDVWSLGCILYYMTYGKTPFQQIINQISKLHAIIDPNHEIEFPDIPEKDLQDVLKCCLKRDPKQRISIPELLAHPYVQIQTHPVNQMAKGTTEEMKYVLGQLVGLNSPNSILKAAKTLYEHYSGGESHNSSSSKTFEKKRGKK
To be noted: at 0.1 µM.

Assay [5] deals with T3, Receptor-type tyrosine-protein kinase FLT3 (Homo sapiens), P36888 [D835Y].
T3 sequence (whole entry): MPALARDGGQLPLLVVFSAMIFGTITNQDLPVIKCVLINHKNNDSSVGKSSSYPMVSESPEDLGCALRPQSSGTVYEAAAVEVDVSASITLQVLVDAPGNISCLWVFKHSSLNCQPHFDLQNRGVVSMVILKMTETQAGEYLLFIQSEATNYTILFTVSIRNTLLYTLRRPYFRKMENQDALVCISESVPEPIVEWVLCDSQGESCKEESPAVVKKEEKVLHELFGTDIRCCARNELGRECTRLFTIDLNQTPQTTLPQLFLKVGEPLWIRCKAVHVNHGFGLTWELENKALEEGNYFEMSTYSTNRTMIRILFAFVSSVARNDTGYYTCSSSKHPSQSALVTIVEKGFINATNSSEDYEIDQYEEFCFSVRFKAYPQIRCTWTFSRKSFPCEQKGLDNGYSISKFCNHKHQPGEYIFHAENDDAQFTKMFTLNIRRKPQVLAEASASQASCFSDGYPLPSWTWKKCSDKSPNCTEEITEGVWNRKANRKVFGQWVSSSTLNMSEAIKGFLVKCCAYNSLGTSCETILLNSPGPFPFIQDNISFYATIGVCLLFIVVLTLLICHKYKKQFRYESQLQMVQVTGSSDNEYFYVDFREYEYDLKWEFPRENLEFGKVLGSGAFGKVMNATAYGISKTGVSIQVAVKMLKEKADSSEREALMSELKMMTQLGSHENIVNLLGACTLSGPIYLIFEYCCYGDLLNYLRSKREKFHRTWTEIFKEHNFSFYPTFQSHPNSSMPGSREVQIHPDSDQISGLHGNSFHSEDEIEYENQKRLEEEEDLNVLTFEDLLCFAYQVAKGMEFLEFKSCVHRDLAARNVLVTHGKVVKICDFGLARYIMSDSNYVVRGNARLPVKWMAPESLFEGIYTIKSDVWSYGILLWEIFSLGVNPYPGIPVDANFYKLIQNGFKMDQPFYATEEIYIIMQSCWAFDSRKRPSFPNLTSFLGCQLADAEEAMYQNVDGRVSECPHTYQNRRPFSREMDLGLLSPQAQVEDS
Conditions: at 1 µM.

Assay [6] deals with Vascular endothelial growth factor receptor 3 (Homo sapiens) (UniProt P35916). To be noted: at 0.1 µM.
UniProt P35916, sequence (P35916 whole entry): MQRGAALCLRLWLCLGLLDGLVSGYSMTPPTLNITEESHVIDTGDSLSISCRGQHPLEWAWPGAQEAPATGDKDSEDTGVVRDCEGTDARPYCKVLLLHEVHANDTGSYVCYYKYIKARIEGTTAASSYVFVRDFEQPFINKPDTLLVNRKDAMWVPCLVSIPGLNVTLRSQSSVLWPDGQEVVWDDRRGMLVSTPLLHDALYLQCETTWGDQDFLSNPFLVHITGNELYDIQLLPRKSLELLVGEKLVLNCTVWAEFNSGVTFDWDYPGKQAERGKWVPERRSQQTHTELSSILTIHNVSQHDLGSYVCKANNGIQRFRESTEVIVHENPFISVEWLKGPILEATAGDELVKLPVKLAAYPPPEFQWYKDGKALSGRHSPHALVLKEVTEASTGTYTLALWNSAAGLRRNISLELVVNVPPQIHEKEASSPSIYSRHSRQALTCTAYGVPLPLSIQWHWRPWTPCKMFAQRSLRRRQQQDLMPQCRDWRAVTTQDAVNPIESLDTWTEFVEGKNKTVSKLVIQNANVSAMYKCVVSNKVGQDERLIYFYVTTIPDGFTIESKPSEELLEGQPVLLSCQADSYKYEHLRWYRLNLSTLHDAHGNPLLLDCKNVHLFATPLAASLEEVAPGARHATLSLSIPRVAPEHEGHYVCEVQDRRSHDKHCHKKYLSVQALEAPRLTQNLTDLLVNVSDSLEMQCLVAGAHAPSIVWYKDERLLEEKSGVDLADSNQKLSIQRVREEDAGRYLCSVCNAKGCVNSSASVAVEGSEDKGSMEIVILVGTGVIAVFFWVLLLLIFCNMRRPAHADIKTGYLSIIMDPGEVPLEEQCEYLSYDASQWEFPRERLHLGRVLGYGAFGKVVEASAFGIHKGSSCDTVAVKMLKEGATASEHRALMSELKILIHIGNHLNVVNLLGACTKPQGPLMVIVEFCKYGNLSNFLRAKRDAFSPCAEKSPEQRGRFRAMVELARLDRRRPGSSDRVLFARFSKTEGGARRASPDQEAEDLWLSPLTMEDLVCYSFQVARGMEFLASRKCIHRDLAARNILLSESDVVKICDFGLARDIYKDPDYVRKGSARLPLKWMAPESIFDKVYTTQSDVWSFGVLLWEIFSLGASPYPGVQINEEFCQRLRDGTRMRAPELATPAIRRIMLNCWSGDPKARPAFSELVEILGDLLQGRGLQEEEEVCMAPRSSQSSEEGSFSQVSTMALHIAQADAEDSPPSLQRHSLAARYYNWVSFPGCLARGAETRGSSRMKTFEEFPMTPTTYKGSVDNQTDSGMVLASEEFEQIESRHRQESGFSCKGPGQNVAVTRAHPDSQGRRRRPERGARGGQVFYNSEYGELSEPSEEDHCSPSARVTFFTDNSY
For assay [7] the target is unchanged. To be noted: at 1 µM.
The target of assay [8] is Macrophage colony-stimulating factor 1 receptor (Homo sapiens) (UniProt P07333). Conditions: at 0.1 µM.
UniProt P07333, sequence (P07333 whole entry): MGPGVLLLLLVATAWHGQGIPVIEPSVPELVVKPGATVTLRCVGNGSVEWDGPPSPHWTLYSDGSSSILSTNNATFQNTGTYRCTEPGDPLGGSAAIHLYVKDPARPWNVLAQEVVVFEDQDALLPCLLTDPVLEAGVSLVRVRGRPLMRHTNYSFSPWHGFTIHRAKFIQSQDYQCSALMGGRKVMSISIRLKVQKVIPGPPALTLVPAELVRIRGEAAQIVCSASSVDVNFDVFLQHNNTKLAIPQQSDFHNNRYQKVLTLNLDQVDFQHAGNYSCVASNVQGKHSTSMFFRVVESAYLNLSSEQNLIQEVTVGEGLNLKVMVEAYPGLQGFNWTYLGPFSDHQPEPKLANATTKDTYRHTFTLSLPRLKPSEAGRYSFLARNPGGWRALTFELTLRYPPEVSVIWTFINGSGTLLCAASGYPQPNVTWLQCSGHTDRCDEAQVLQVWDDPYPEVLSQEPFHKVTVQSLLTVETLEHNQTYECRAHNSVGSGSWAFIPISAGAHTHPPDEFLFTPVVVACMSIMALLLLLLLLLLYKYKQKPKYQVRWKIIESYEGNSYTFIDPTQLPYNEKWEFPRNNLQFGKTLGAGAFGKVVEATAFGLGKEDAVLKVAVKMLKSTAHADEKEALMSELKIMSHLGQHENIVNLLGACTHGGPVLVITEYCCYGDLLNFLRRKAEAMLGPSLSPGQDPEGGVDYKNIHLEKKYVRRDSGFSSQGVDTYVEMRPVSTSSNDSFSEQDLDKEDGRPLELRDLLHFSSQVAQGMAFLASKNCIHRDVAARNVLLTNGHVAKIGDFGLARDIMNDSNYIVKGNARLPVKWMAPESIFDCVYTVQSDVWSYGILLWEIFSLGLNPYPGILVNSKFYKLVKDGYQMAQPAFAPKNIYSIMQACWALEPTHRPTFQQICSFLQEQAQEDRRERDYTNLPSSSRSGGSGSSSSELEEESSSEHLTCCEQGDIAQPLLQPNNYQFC
Assay [9] has the same target. Conditions: at 1 µM.
Assay [10] deals with Tyrosine-protein kinase Fyn (Homo sapiens) (UniProt P06241). To be noted: at 0.1 µM.
For assay [11] the target is unchanged. Conditions: at 1 µM.
For assay [12], the target named is Tyrosine-protein kinase HCK (Homo sapiens) (UniProt P08631). Conditions: at 0.1 µM.
UniProt P08631, sequence (P08631 whole entry, looked up): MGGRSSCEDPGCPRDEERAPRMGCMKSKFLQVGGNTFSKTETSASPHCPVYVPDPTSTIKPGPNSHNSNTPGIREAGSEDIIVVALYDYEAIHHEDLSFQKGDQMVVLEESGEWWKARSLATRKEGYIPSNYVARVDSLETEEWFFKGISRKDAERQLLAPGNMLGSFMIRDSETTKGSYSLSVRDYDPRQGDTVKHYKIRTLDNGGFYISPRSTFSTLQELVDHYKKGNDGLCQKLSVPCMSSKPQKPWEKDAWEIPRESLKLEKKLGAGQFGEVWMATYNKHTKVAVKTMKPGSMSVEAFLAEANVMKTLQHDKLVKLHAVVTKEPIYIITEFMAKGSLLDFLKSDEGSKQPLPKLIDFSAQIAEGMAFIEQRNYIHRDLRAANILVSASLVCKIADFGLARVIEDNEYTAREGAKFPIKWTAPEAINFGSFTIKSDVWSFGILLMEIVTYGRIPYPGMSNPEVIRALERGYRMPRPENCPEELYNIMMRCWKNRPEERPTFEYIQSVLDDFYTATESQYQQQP
The target is the same in assay [13]. Conditions: at 1 µM.
The target of assay [14] is Insulin-like growth factor 1 receptor (Homo sapiens) (UniProt P08069). Conditions: at 0.1 µM.
UniProt P08069, sequence (P08069 whole entry, looked up): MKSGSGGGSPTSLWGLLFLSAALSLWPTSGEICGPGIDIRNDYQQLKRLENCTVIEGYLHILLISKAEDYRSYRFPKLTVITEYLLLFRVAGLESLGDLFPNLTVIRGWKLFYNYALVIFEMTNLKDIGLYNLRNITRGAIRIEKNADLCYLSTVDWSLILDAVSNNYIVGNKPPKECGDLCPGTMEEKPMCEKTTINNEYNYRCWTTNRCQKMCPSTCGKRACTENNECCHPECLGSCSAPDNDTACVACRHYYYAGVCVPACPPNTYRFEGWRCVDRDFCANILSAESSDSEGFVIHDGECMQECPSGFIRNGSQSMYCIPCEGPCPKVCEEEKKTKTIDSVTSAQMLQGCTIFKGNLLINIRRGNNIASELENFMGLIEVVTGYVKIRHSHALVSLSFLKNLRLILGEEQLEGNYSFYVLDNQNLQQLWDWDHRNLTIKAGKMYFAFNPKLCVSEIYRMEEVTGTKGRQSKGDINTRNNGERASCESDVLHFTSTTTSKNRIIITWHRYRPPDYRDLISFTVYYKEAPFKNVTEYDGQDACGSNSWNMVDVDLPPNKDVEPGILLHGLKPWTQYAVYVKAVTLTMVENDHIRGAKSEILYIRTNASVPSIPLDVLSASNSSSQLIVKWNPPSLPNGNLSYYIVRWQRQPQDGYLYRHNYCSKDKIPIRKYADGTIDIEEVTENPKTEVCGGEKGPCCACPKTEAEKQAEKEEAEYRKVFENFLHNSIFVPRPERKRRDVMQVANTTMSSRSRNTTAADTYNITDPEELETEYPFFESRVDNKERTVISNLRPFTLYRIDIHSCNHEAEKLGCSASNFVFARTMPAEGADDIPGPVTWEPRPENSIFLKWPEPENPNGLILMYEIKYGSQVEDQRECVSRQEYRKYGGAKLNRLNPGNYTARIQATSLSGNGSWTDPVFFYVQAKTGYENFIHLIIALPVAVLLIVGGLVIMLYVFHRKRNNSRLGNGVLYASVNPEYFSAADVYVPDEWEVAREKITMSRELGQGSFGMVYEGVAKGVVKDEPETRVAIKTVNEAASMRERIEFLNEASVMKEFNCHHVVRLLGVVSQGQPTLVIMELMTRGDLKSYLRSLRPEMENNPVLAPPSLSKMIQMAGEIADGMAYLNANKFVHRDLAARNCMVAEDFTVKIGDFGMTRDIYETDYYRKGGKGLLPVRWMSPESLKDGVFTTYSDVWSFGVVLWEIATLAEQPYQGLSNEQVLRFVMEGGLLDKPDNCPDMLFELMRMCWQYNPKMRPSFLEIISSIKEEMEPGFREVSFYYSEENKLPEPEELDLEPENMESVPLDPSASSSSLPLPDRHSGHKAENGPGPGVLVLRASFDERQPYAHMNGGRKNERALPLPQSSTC
For assay [15] the target is unchanged. To be noted: at 1 µM.
Assay [16] concerns the target Insulin receptor (Homo sapiens) (UniProt P06213). Conditions: at 0.1 µM.
For assay [17] the target is unchanged. Conditions: at 1 µM.
The target in assay [18] is Insulin receptor-related protein (Homo sapiens) (UniProt P14616). Conditions: at 0.1 µM.
For assay [19] the target is unchanged. To be noted: at 1 µM.
Assay [20] concerns the target T4, Tyrosine-protein kinase ITK/TSK (Homo sapiens) (UniProt Q08881).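 Note: mean percent inhibition of ITK from the GSK PKIS screen.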
T4 sequence (whole entry): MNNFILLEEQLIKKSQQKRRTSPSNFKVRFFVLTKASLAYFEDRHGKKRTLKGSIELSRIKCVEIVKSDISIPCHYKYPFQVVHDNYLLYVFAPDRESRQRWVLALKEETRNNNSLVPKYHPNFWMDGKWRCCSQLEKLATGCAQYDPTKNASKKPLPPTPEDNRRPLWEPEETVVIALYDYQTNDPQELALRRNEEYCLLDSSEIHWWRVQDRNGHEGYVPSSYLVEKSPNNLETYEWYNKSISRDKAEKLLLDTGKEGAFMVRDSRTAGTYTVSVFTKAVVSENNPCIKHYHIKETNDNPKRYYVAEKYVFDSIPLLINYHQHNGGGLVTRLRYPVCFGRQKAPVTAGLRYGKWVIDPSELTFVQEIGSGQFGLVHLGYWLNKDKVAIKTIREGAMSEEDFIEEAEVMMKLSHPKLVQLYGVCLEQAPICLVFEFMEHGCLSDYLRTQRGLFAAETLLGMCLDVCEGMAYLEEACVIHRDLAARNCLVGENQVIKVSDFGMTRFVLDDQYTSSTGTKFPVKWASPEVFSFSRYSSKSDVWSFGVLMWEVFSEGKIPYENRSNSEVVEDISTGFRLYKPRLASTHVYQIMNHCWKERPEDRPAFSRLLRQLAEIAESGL
Conditions: at 0.1 µM.

For part of these data: Shown are results outside the selection of strong results, which stands elsewhere. Only a part is listed here, and it is no random draw.

On to `O=C1NC(=O)C(c2cccc([N+](=O)[O-])c2)=C1Nc1cc(Cl)c(O)c(Cl)c1`, for which the inhibition in [1] was 4.74%; in [2] it was 1.85%; in assay [3] it was -1.62%; in assay [4], 4.08%; in [5], -1.93%; in assay [6], 0.47%. The inhibition is 2.54% in assay [7]; 0.1% in assay [8]; 27% in assay [9]; 0.08% in assay [10]; 0.6% in [11]; 2.54% in assay [12]. Further, the inhibition was 0.75% in assay [13]; -4.01% in assay [14]; -0.5% in [15]; 3.24% in assay [16]; 1.56% in [17]; -0.61% in assay [18]. The inhibition in assay [19] was 0.1%; in [20], -1.3%.
In the case of `Fc1ccc(-c2ncn(C3CCNCC3)c2-c2ccnc(Oc3cccc(C(F)(F)F)c3)n2)cc1`, the inhibition was 4.49% in [1]; 3.38% in [2]; 3.12% in assay [3]; 15.7% in [4]; -0.56% in [5]; 5.59% in assay [6]. The inhibition is 5.6% in assay [7]; -0.43% in [8]; 10.2% in [9]; 3.54% in [10]; 6.48% in [11]; 7.73% in assay [12]. Moreover, the inhibition came to 8.66% in [13]; 3.26% in assay [14]; 6.06% in assay [15]; 4.7% in [16]; 3.65% in assay [17]; 3.45% in assay [18]. The inhibition worked out at 3.68% in assay [19] and 0.41% in [20].
With `O=C(O)c1ccc(Oc2nccc(-c3c(-c4ccc(F)cc4)ncn3C3CCNCC3)n2)cc1`, the inhibition is 5.05% in assay [1]; 4.27% in assay [2]; 7.38% in assay [3]; 7.97% in assay [4]; -3.54% in assay [5]; 11.2% in assay [6]. The inhibition was 15.4% in [7]; 7.73% in [8]; 4.11% in assay [9]; 2.92% in [10]; -1.45% in [11]; 7.45% in assay [12]. In addition, the inhibition was determined as 9.14% in [13]; 19.6% in [14]; 13.4% in assay [15]; 7.59% in assay [16]; 4.59% in assay [17]; 1.17% in [18]. In addition, the inhibition in assay [19] was determined as 4.7%; in assay [20], 2.79%.

In general, inhibition refers to the change of the read-out against control, counted positive when it falls.
